According to PubChem BioAssay AID686979 (National Center for Advancing Translational Sciences (NCATS), 2013):
Out of some 420,000 compounds screened, about 50,000 (12%) were called active. Inconclusive results, whose numbers are uncertain, are shown with a selection of clear calls. Calls follow the shape of the dose curve; as a rule, active = well fitted inhibition curve with a large enough effect; inconclusive = small, poorly fitted or top-dose-only effect; inactive = flat fitted curve, though single readings scatter. No potency is given beside an inconclusive call; the fits are too rough.

experiment: qHTS for Inhibitors of human tyrosyl-DNA phosphodiesterase 1 (TDP1): qHTS in cells in presence of CPT; conditions: chicken DT40 Tdp1-/-;hTDP1 cells + 20 nM CPT, ATP luminescence, 48 h; activity change, negative = growth inhibition: at 46.2 µM (top of the series) unless noted; also: nearly all actives have a fitted effect of over 55% in size
In short: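 Chicken DT40 Tdp1-/- cells stably complemented with human TDP1 were seeded at 400 cells/well in medium containing 20 nM camptothecin, exposed to pin-transferred compounds, and grown at 37 °C for at least 48 hr. Viability was read as ATP luminescence.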
% is scaled to controls: 0 for no effect and ±100 for the full control effect; potency is read from the fitted curve at half-maximal effect; tags tell the direction and shape of the fitted curve.

SMILES	activity change, negative = growth inhibition	Potency
O=C(Cn1cnc2cc([N+](=O)[O-])ccc2c1=O)Nc1ccc(N2CCOCC2)cc1	inactive: -7.17%	
COc1ccccc1NC(=O)c1cc2cc3ccc(OC)c(Cl)c3nc2s1		inconclusive [inhibitor, single point]
CC1(OC(=O)C2CCCC2)C(=O)C=C2C=C(c3ccsc3)N(CCc3c[nH]c4ccccc34)C=C2C1=O (stereo unspecified)		active: 20.6 µM
COc1cc(NC(=O)COC(=O)c2nc3nc(C)cc(C)n3n2)cc(OC)c1	inactive: 2.01%	
CC1(C)CC(=O)C=C(C(=O)N2CCCC(C(=O)c3cccc(C(F)(F)F)c3)C2)O1 (stereo unspecified)		inconclusive [inhibitor, single point]
COc1ccc(CC(=O)Nc2ccc(-c3cn4ccccc4n3)cc2)cc1OC	inactive: -8.08%	
Cc1ccc([C@H]2C[C@H](O)[C@@H](n3cc(-c4ccc(F)cc4)nn3)CN2Cc2cccs2)cc1		inconclusive [inhibitor, single point]
CCCCOC(=O)c1ccc(NC(=O)Nc2ccc(OC)c(OC)c2)cc1		inconclusive [inhibitor, single point]
CC(=O)c1cn(CC(=O)Nc2ccccc2F)c2ccccc12		active: 18.4 µM
CCOC(=O)c1ccc(NC(=O)c2nc(SCc3ccc(F)cc3)ncc2Cl)cc1		inconclusive [inhibitor, single point]
Cc1nn(C)cc1C(=O)Nc1cc(Oc2ccc(Cl)cc2)cc([N+](=O)[O-])c1		inconclusive [inhibitor, single point]
CSc1ncccc1C(=O)NNc1cc(Cl)ccc1Cl	inactive: -16.3%	
O=C(COC(=O)CCSc1ccccc1)NCc1ccccc1	inactive: 2.83%	
O=C(Nc1ccccc1[N+](=O)[O-])C1C(c2ccccc2)=C1c1ccccc1		inconclusive [inhibitor, single point]
N#Cc1nc(-c2ccc(F)cc2)oc1N1CCC(C(N)=O)CC1	inactive: -0.23%	
COC(=O)c1c(NC(=O)CN2CCN(c3ccccc3)CC2)c2c(C)cccc2n1C	inconclusive: -33.9% [inhibitor]	
CC(C)(C)OC(=O)N1CCC[C@H]1C(=O)Nc1ccc(S(=O)(=O)C(F)F)cc1		active: 13 µM
Cc1cc(C)nc(/N=C(\N)Nc2ccc(SC(F)F)cc2)n1		active: 13 µM
Cn1ccc(C(=O)OCC(=O)Nc2ccccc2Cl)n1	inactive: -23%	
Cc1n(CC(O)COC2CCCCC2)c2ccccc2[n+]1C (stereo unspecified)		inconclusive [inhibitor, single point]
CCOC(=O)Cc1csc(NC(=O)COc2ccc(C)cc2)n1		inconclusive [inhibitor, single point]
O=C(NCCc1ccccc1Cl)c1cc2ccccn2n1	inconclusive: -34.9% [inhibitor]	
CCN(CC(=O)Nc1cc(Cl)ccc1C)C(=O)CCc1nc2ccccc2c(=O)[nH]1		inconclusive [inhibitor, single point]
CC(OC(=O)c1ccc2ncsc2c1)C(=O)Nc1cccc(Cl)c1 (stereo unspecified)	inactive: -19.2%	

SMILES	activity change, negative = growth inhibition	Potency
CCN(C(=O)COC(=O)c1c(C)c(-c2ccccc2)nc2ccccc12)C1CCS(=O)(=O)C1 (stereo unspecified)		inconclusive [inhibitor, single point]
O=C(Nc1ccc2c(c1)OCCO2)C(c1ccnc2ccccc12)N1CCN(c2ccc(C(F)(F)F)cn2)CC1 (stereo unspecified)		inconclusive [inhibitor, single point]
CCC/C(O)=C1\C(=O)CC(C)(C)CC1=Nc1cccc([N+](=O)[O-])c1		inconclusive [inhibitor, single point]
CCc1ccc(N(CC(=O)NCc2ccc3c(c2)OCO3)C(=O)c2csnn2)cc1	inactive: -3.16%	
COc1ccc2cc3cc(C(=O)NCc4ccco4)oc3nc2c1		inconclusive [inhibitor, partial curve, poor fit]
Cc1nnc(SC2CC(=O)N(c3ccccc3)C2=O)s1 (stereo unspecified)		active: 3.66 µM
Cc1cccc(N2CCN(C(=O)CCCn3c(=S)[nH]c4cc5c(cc4c3=O)OCO5)CC2)c1C		inconclusive [inhibitor, single point]
COc1ccc(C(C)(NC(C)=O)c2nc(-c3cccc(NC(C)=O)c3)cs2)cc1 (stereo unspecified)		inconclusive [inhibitor, partial curve, poor fit]
Cc1cccc(NC(=O)NNC(=O)COc2ccc([N+](=O)[O-])cc2)c1C	inactive: 1.51%	
CCOc1ccc(N(Cc2cc3cc(OC)ccc3[nH]c2=O)S(C)(=O)=O)cc1	inactive: -20.9%	
CC(C)(C)NC(=O)c1ccccc1-c1nc(-c2ccccc2Cl)no1		inconclusive [inhibitor, partial curve]
Cn1c(CN2CCOCC2)nnc1SCc1ccc(C#N)cc1	inactive: -12.4%	
N#Cc1cccc(NC(=O)CNc2cc(S(=O)(=O)N3CCOCC3)ccc2N2CCCC2)c1		inconclusive [inhibitor, single point]
COc1ccc(-c2cc(C(=O)N3CCCCC3)c3ccccc3n2)cc1		active: 16.4 µM
O=C(O)c1nn(CCOc2ccccc2F)c(=O)c2ccccc12	inactive: -16.8%	
CCC(CO)Oc1cc(NCc2ccc(Cl)cc2Cl)c2ncn(C(C)C)c2c1 (stereo unspecified)		inconclusive [inhibitor, single point]
COc1ccc(C)cc1S(=O)(=O)NCCc1ccccc1		inconclusive [inhibitor, full curve, poor fit]
COc1cc(C(=O)NCCc2cn3ccc(C)cc3n2)cc(OC)c1OC		inconclusive [inhibitor, partial curve]
CC(C)Oc1ccc(C(=O)NC(=S)Nc2ccc(CN3CCOCC3)cc2)cc1		inconclusive [inhibitor, single point]
COc1ccc(CNc2ncnc3c2c(-c2ccccc2)cn3-c2ccc(C)c(Cl)c2)cc1	inactive: -28.3%	
O=C(Cn1cc(S(=O)(=O)Cc2ccccc2F)c2ccccc21)Nc1ccc(F)c(Cl)c1		inconclusive [inhibitor, single point]
O=C(OCCCN1CCCCC1)c1ccc(O)cc1	inactive: 0.739%	
CC(=O)Oc1ccccc1/C=C/c1ccc2ccccc2[n+]1C		active: 20.6 µM
Cc1ccc(C(=O)NCCn2cc(SCC(=O)Nc3cc(C)on3)c3ccccc32)cc1	inconclusive: -30.7% [inhibitor]	

SMILES	activity change, negative = growth inhibition	Potency
CC(=O)c1cc(F)ccc1OCC(=O)N1CCN(c2ccc(F)cc2)CC1		inconclusive [inhibitor, single point]
CN(C)c1ccc(C(CNC(=O)c2ccc(C#N)cc2)c2c[nH]c3ccccc23)cc1 (stereo unspecified)		inconclusive [inhibitor, single point]
Cc1ccc2c(c1)N(C(=O)CCC(=O)NC1CCN(Cc3ccccc3)CC1)CC(C)O2 (stereo unspecified)		active: 20.6 µM
O=C1C[C@H]2[C@H](CO)[C@@H](OC(=O)c3ccc(-c4ccccc4)cc3)C[C@H]2O1		inconclusive [inhibitor, single point]
CCOc1ccccc1CN1CCN(C/C=C/c2ccc(OC)cc2)CC1CCO (stereo unspecified)		inconclusive [inhibitor, single point]
COc1ccc(/C=C/c2nc(-c3ccccc3O)n(-c3ccccc3)n2)cc1	inactive: -27.8%	
COc1ccc2c(CNCc3ccco3)c(C(=O)O)n(Cc3cccc(F)c3)c2c1	inactive: -3.38%	
OCC1OC(n2cnc3c(NCc4ccccc4O)ncnc32)C(O)C1O (stereo unspecified)		active: 1.3 µM
COC(=O)c1cc(-c2ccc(OC)cc2F)nc2nc(SC)[nH]c(=O)c12	inactive: -26.5%	
COc1ccc(C(=O)Nc2ccccc2C(=O)N/N=C/c2cccc3ccccc23)cc1		active: 20.6 µM
C/C(=N/O)c1ccc2c(c1)OCCOCCOc1cc(/C(C)=N/O)ccc1OCCOCCO2		inconclusive [inhibitor, single point]
Cc1ccccc1NS(=O)(=O)c1ccc2c(c1)NC(=O)CO2	inactive: 8.95%	
CCn1c(CSCc2ccc(F)cc2)nnc1SCC(=O)NCc1ccccc1		inconclusive [inhibitor, partial curve]
COc1cccc(C(=O)Nc2nc(-c3nnn(-c4cccc(Cl)c4C)c3C)ns2)c1		inconclusive [inhibitor, partial curve]
CCOC(=O)c1c(NC(=O)CSc2nnc(C)s2)sc2c1CCCCC2		inconclusive [inhibitor, single point]
O=C(CCc1ccc(S(=O)(=O)NC2CCCCC2)cc1)NCc1ccc(Cl)cc1		inconclusive [inhibitor, single point]
Clc1ccc(Cc2nc(-c3ccncc3)no2)cc1		inconclusive [inhibitor, single point]
COc1cccc(C2CC(c3ccccc3Cl)n3nnnc3N2)c1 (stereo unspecified)		inconclusive [inhibitor, partial curve, poor fit]
O=S(=O)(c1ccc(-c2nnc(SCc3nnc(-c4ccccc4)o3)o2)cc1)N1CCCC1		inconclusive [inhibitor, single point]
COc1ccc(Cl)cc1NC(=O)CN(C)C(=O)CN1C(=O)NC(C)(c2ccc3ccccc3c2)C1=O (stereo unspecified)		inconclusive [inhibitor, partial curve, poor fit]
CNc1cccc2c1C(=O)c1ccccc1C2=O	inactive: -22.9%	
Cc1cccc(NC(=O)COC(=O)c2cccs2)c1C	inactive: 0.771%	
CCOC(=O)N1CCC(N2C(=O)c3ccccc3C2Nc2ccc(C)cc2)CC1 (stereo unspecified)		inconclusive [inhibitor, single point]
